The results in this text go back to patent US20250066451A1 (SWEDISH ORPHAN BIOVITRUM AB PUBL, published 2025).

The labels stand for the following.
T1: Human IL-1R-I-Fc (Creative BioMart cat. no. IL1RI-771H) (human, UniProt P14778 18-332, limits assumed)
T1 construct: bought protein; also called hIL-1R-I-Fc; hIL-1RI-Fc
T1 sequence (looked up): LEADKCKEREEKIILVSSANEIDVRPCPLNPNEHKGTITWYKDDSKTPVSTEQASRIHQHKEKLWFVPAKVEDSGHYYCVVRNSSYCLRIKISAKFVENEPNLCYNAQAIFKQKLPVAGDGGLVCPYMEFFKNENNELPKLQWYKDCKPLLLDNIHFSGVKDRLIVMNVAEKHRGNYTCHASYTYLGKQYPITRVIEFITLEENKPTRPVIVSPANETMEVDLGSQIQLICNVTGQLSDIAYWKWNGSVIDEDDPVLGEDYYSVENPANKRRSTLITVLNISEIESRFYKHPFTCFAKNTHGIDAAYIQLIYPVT

T2: Human IL-1R-I-Fc (Creative BioMart cat. no. IL1RI-771H) (human, UniProt P14778 18-332, limits assumed)
T2 construct: Bought Fc fusion; also called hIL-1R-I-Fc; hIL-1RI-Fc; not shown: Fc part of the bought fusion
T2 sequence (looked up): T1 sequence (looked up)

B1: Z17274-ABD (designed binder)
chain: AQHDEALEVDAKYAKEIEVAYMEIYHLPNLTRKQYTAFIRKLLDDPSQSSELLSEAKKLNDSQAPKVDYVLAEAKVLANRELDKYGVSDYYKNLINNAKTVEGVKALIDEILAALPYVPG
B2: Z17292-ABD (designed binder)
chain: B1 chain with I17V, V19Y, M22F, H26S
B3: Z17288-ABD (designed binder)
chain: B1 chain with I17A, E18D, V19A, M22F
B4: Z18557-ABD (designed binder)
chain: B1 chain with V19A, A20V, Y21Q, Y25F, H26Y, L43F
B5: Z17296-ABD (designed binder)
chain: B1 chain with I17V, V19T, M22F, H26A
B6: Z17297-ABD (designed binder)
chain: B1 chain with I17A, E18Y, V19I, Y21Q, Y25F, H26G
B7: Z17280-ABD (designed binder)
chain: B1 chain with I17V, V19Q, M22W, H26A
B8: Z17279-ABD (designed binder)
chain: B1 chain with I17V, V19D, M22F, H26Y
B9: Z17278-ABD (designed binder)
chain: B1 chain with V19R, M22Y, H26D
B10: Z18838 (designed binder)
chain: B1 chain with I17V, V19E, A20I, Y21Q, Y25F
notes: Z-ABD001 fusion in periplasmic extract; also called Z-ABD
B11: Z16606 (designed binder)
chain: B1 chain with V19K, Y21Q, Y25F, H26D, L43F
notes: as for B10
B12: Z18790 (designed binder)
chain: B1 chain with I17V, V19A, A20V, Y21Q, Y25F, H26A, K33R
notes: as for B10
B13: Z18770 (designed binder)
chain: B1 chain with I17T, V19R, A20V, Y21Q, Y25F, H26S, K33R
notes: as for B10
B14: Z18777 (designed binder)
chain: B1 chain with V19Q, A20V, Y21Q, Y25F, H26R, K33R
notes: as for B10
B15: Z15876 (designed binder)
chain: B1 chain with V19A, Y21Q, Y25F, H26G, L43F
notes: as for B10
B16: Z18759 (designed binder)
chain: B1 chain with V19K, A20V, Y21Q, Y25F
notes: as for B10
B17: Z18806 (designed binder)
chain: B1 chain with I17T, V19E, A20I, Y21Q, Y25F, H26R
notes: as for B10
B18: Z16183 (designed binder)
chain: B1 chain with I17V, V19D, Y21Q, Y25F, H26Y
notes: as for B10
B19: Z16062 (designed binder)
chain: B1 chain with V19E, Y21Q, Y25F, H26Y, L43F
notes: as for B10
B20: Z18776 (designed binder)
chain: B1 chain with I17V, V19A, A20I, Y21Q, Y25F, K33R
notes: as for B10
B21: Z15862 (designed binder)
chain: B1 chain with I17V, V19I, Y21Q, Y25F, H26A
notes: as for B10
B22: Z16603 (designed binder)
chain: B1 chain with I17V, V19A, Y21Q, Y25F, H26Y, L43F
notes: as for B10
B23: Z18785 (designed binder)
chain: B1 chain with I17L, V19E, A20I, Y21Q, Y25F
notes: as for B10
B24: Z18754 (designed binder)
chain: B1 chain with I17V, V19E, A20I, Y21Q, Y25F, H26R, K33R
notes: as for B10
B25: Z16208 (designed binder)
chain: B1 chain with I17V, V19K, Y21Q, Y25F, H26D, L43F
notes: as for B10
B26: Z15975 (designed binder)
chain: B1 chain with I17V, V19T, Y21Q, Y25F, H26V
notes: as for B10
B27: Z15840 (designed binder)
chain: B1 chain with I17V, Y21Q, Y25F, H26A
notes: as for B10
B28: Z18799 (designed binder)
chain: B1 chain with I17V, V19A, A20I, Y21Q, Y25F, L43F
notes: as for B10
B29: Z18774 (designed binder)
chain: B1 chain with A20I, Y21Q, Y25F, H26R
notes: as for B10
B30: Z18758 (designed binder)
chain: B1 chain with I17T, A20V, Y21Q, Y25F, H26G, K33R, L43F
notes: as for B10
B31: Z18769 (designed binder)
chain: B1 chain with I17V, V19E, A20V, Y21Q, Y25F, K33R
notes: as for B10
B32: Z18804 (designed binder)
chain: B1 chain with I17L, V19E, A20I, Y21Q, Y25F, H26R, K33R
notes: as for B10
B33: Z18766 (designed binder)
chain: B1 chain with I17T, V19Q, A20V, Y21Q, Y25F, K33R
notes: as for B10
B34: Z18763 (designed binder)
chain: B1 chain with V19A, A20V, Y21Q, Y25F, H26G
notes: as for B10
B35: Z18760 (designed binder)
chain: B1 chain with I17T, V19A, A20V, Y21Q, Y25F, H26A, K33R
notes: as for B10
B36: Z18757 (designed binder)
chain: B1 chain with V19E, A20I, Y21Q, Y25F, H26R, L43F
notes: as for B10
B37: Z18803 (designed binder)
chain: B1 chain with V19Q, A20I, Y21Q, Y25F, H26R, K33R
notes: as for B10
B38: Z18805 (designed binder)
chain: B1 chain with V19A, A20V, Y21Q, Y25F, H26A, L43F
notes: as for B10
B39: Z15934 (designed binder)
chain: B1 chain with I17V, E18T, Y21Q, Y25F, H26A
notes: as for B10
B40: Z18771 (designed binder)
chain: B1 chain with I17V, V19E, A20I, Y21Q, Y25F, H26R
notes: as for B10
B41: Z15945 (designed binder)
chain: B1 chain with I17V, V19E, Y21Q, Y25F, H26S
notes: as for B10
B42: Z18786 (designed binder)
chain: B1 chain with I17L, V19E, A20V, Y21Q, Y25F, H26R, L43F
notes: as for B10

Where a chain is given by its changes, count along the chain named. Names and notes keep the numbering of the source.

One test deals with T1, Human IL-1R-I-Fc (Creative BioMart cat. …). Nature of the test: ELISA, hIL-1R-I-Fc titration on Z-ABD.
Turning to B1, the EC50 was 0.21 nM.

Molecule B2 registered an EC50 of 0.2 nM.

As for B3, the EC50 came out at 0.42 nM.

Consider B4, for which the EC50 was 0.19 nM.

In the case of B5, the EC50 stood at 0.32 nM.

For B6, the EC50 was 0.24 nM.

In turn, B7 showed an EC50 of 0.22 nM.

Take B8: the EC50 was found to be 0.28 nM.

B9 displayed an EC50 of 0.27 nM.

A further test deals with T2, Human IL-1R-I-Fc (Creative BioMart cat. …). Put plainly: ELISA, captured Z-ABD, hIL-1R-I-Fc titrated. In general terms: In an ELISA, binding on a coated surface is turned into a signal by an enzyme label.
B10 returned an EC50 of 0.24 nM.

As to B11, the EC50 was 0.23 nM.

B12 gave an EC50 of 0.26 nM.

B13 registered a 50% effective concentration (EC50) of 0.28 nM.

Regarding B14, the EC50 was 0.26 nM.

On to B15, for which it took 0.19 nM to reach a half-maximal effect (EC50).

The molecule B16 returned an EC50 of 0.24 nM.

B17 yielded an EC50 of 0.27 nM.

As for B18, the EC50 came to 0.23 nM.

B19 had an EC50 of 0.21 nM.

B20 came in with an EC50 of 0.22 nM.

With B21, the EC50 stood at 0.25 nM.

Molecule B22 showed an EC50 of 0.22 nM.

B23 showed an EC50 of 0.25 nM.

With B24, the EC50 stood at 0.35 nM.

For B25, the EC50 turned out to be 0.22 nM.

On to B26, for which a half-maximal effect (EC50) was put at 0.19 nM.

B27 gave an EC50 of 0.23 nM.

B28: the EC50 stood at 0.23 nM.

The molecule B29 came in with an EC50 of 0.26 nM.

Regarding B30, the EC50 was 0.24 nM.

Turning to B31, the EC50 amounted to 0.29 nM.

The molecule B32 yielded an EC50 of 0.27 nM.

B33 displayed an EC50 of 0.33 nM.

B34 gave an EC50 of 0.26 nM.

As for B35, the EC50 came out at 0.17 nM.

Take B36: the EC50 is 0.3 nM.

B37: the EC50 turned out to be 0.25 nM.

Take B38: the EC50 came to 0.27 nM.

Regarding B39, the EC50 is 0.17 nM.

Molecule B40 came in with an EC50 of 0.25 nM.

Turning to B41, the EC50 was found to be 0.23 nM.

B42 had an EC50 of 0.24 nM.

The EC50 is the concentration needed to bring the measured effect to its halfway point. Read a low EC50 as higher potency in that assay.
